Activation data for 83 compounds are collected here from PubChem BioAssay AID1645887 (National Center for Advancing Translational Sciences (NCATS), 2021).

SMILES strings stand for the structures. Several values for one entry are separate records, joined by “and”; a condition that tells them apart may be missing. Equal entries are not always repeated. The whole screen tested about 16,000 compounds, of which about 40 (0.2%) were called active. Inconclusive results (about 1%) are left out. Calls come from the whole dose curve; as a rule, active = well fitted activation curve with a large enough effect; inconclusive = small, poorly fitted or top-dose-only effect, or another doubt; inactive = no such curve, though single readings can be large or run the other way. This is one part of the list. Residues, ends and D or L forms follow the SMILES beside them. *: point of attachment. Boc = CC(C)(C)OC(=O)*
% is set by controls: 0 for no effect and ±100 for the full control effect.

Sequence of UniProt Q8WZA2 (Q8WZA2 whole entry, looked up): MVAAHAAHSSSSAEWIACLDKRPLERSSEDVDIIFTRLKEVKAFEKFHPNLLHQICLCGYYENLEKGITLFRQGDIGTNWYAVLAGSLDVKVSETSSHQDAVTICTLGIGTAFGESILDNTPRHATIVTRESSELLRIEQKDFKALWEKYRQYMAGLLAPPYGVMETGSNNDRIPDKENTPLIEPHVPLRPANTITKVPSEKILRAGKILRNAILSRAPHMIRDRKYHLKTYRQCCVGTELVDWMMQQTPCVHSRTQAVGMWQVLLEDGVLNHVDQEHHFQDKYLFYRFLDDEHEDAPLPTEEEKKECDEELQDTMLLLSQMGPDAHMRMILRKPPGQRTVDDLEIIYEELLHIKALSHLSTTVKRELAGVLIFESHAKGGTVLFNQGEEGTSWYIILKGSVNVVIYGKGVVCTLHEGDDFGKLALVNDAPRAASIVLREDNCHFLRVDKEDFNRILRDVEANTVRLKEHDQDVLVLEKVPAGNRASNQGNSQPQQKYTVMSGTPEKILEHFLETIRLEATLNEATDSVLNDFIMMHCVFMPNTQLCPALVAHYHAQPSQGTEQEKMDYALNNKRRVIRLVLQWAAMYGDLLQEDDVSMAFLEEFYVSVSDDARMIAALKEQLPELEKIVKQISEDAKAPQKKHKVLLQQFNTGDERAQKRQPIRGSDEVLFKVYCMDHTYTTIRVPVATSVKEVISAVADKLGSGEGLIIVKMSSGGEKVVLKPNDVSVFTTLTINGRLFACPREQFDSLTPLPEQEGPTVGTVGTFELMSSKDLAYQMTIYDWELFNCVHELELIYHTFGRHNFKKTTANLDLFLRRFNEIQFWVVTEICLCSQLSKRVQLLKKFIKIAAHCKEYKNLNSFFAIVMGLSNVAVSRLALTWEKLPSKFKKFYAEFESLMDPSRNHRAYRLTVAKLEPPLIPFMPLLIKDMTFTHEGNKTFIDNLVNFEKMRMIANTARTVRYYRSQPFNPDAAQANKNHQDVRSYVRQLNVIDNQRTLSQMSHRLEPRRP

The target in this assay is Rap guanine nucleotide exchange factor 4 (Homo sapiens) (UniProt Q8WZA2). The assay can be described thus: Validation qHTS for agonist of cAMP-regulated guanine nucleotide exchange factor 4 (EPAC2).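 Note: exchange makes BODIPY-GDP fluorescence drop when released from Rap1B; series mostly up to about 150 µM.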 The conditions noted are these: EPAC2 Rap1B BODIPY-GDP exchange, fluorescence; activation: stronger effect = higher value. The procedure, abridged:
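Fluorescent exchange assay: 100 nM EPAC2 with 250 nM RAP1B-BODIPY-GDP and 50 uM GDP; compound added, 5 min at room temperature, then read (ex 480/em 540 nm) every 5 min for 30 min. Normalized to 6.5 mM cAMP agonist control.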
On to `COc1cc(COc2cc(N)c(Cl)cc2C(=O)CCC2CCN(CCNS(C)(=O)=O)CC2)cc(OC)c1`, for which the activation is inactive: -2.12% and inactive: -6.11%.
Consider `FC(F)(F)c1ccccc1-c1nc(NC2CCNCC2)c2ccccc2n1`, for which the activation was inactive: -3.57%.
Take `NC1(C(=O)O)C[C@@H](C(=O)O)[C@H](C(=O)O)C1`: the activation is inactive: -9.46% and inactive: -9.83% and inactive: -5.59%.
The value for `CC(C)[C@H](CO)Nc1nc(Nc2ccc(C(=O)O)c(Cl)c2)c2ncn(C(C)C)c2n1` was inactive: -14.8%.
Regarding `CC(=O)N1CCC2(CCCN(c3ccccn3)C2)CC1`, the activation was inactive: -2.19%.
Take `CCC[C@H](N[C@@H](C)C(=O)N1[C@@H]2CCCC[C@H]2C[C@H]1C(=O)O)C(=O)OCC`: the activation was inactive: -11.1%.
In the case of `COc1cccc(-c2cncnc2NCc2cnc(C)cn2)c1`, the activation was inactive: 1.05%.
With `COc1ccc(C(=O)c2ccccc2)c(O)c1O`, the activation is inactive: -8.65%.
Take `Nc1nc2ncc(CNc3ccc(C(=O)N[C@@H](CCC(=O)O)C(=O)O)cc3)nc2c(=O)[nH]1`: the activation is inactive: -12.7% and inactive: -16.6%.
Regarding `COCC(=O)Nc1cc(C(=O)N2CCC(c3ccccc3)CC2)cc2nc(-c3ccccc3)n(C)c12`, the activation is inactive: 5.45%.
For the compound `Cc1cccc(CNC(=O)c2c3n(c(C)cc2=O)-c2ccccc2SC(c2ccsc2)C3)n1` (stereo not drawn), the activation is inactive: -6.43%.
With `COCCn1c(=O)cnc2cnc(Nc3ccccc3)nc21`, the activation is inactive: -1.9%.
Take `CC(N)C(O)c1cccc(O)c1` (stereo not drawn): the activation was inactive: -10.5%.
As to `NO`, the activation is inactive: -34.1%.
As for `Cc1cc(C)c(S(=O)(=O)Nc2ccccc2C(F)(F)F)c(C)c1`, the activation was inactive: -4.13%.
Then `COCCC1CCCCN1Cc1nc(N2CCCC2)c2cc(OC)c(OC)cc2n1` (stereo not drawn), with inactive: -11.9%; and `CCCCCCc1c(C[C@H](N)C(=O)O)o[nH]c1=O`, with inactive: 0.124% and inactive: 0.533%.
The value for `CN(C)C(=O)c1ccc(-c2nc(N3CCOCC3)c3ccccc3n2)cc1` was inactive: -5.48%.
On to `c1cc2c(cc1C1CCCCC1)c1c3n2CCN[C@H]3CCC1`, for which the activation is inactive: -1.43%.
Take `O=C(c1n[nH]c2c1CCCC2)N1CCC(n2c(C3CCCO3)nc3ccccc32)CC1` (stereo not drawn): the activation was inactive: -5.47%.
Consider `CCN(CC)CCNC(C(=O)OCCC(C)C)c1ccccc1` (stereo not drawn), for which the activation was inactive: -13.1%.
For the compound `C[C@@H]1C[C@H]2[C@@H]3CCC4=CC(=O)C=C[C@]4(C)[C@@]3(F)[C@@H](O)C[C@]2(C)[C@@]1(O)C(=O)COP(=O)(O)O`, the activation was inactive: 5.26%.
Consider `Cc1c(C(=O)N(C)Cc2cccc3ncccc23)cnn1-c1nccc(-c2ccccc2F)n1`, for which the activation is inactive: -4.6%.
Turning to `CC(=O)c1ccccc1-c1ccc2c(c1)CC(CNC(=O)C[C@@H]1C[C@@H](C)NC(=S)N1)O2` (stereo partly drawn), the activation is inactive: 4.55%.
The value for `N[C@H](C(=O)O)[C@@H]1[C@@H](C(=O)O)C1(F)F` was inactive: -9.67% and inactive: 11.5%; that for `CCCN(C/C=C/I)C1CCc2cccc(O)c2C1` (stereo not drawn) was inactive: -6.44%.
On to `FC(F)(F)c1ccccc1-c1ccc2ncnc(N3CCOCC3)c2c1`, for which the activation is inactive: -24.3%.
Turning to `COc1cccc(Cn2c(=O)c(C)nc3cnc(Nc4ccccc4)nc32)c1`, the activation is inactive: -3.42%.
Then `CC(C)CC(=O)N1C/C=C\C[C@@H](c2ccc(Cl)cc2)N(Cc2ccc(Cl)cc2)C(=O)[C@@H]1Cc1ccccc1`, with inactive: -30.2%; and `CCNc1ncc2ncc(=O)n(C)c2n1`, with inactive: -8.51%.
For `Cc1ccc(S(=O)(=O)NC(=O)N[C@@H](C)Cc2ccccc2)cc1`, the activation is inactive: -8.11%.
Then `Nc1cc(Cl)c(NC2=NCCN2)c(Cl)c1`, with inactive: 5.46% and inactive: 6.4%; and `C[C@@]12CCC[C@H]1[C@@H]1CC[C@H]3C[C@@H](O)CC[C@]3(C)[C@H]1CC2`, with inactive: -20.4%.
Consider `Cc1ccccc1-c1nc(Nc2ccncc2)c2ccccc2n1`, for which the activation was inactive: -32.7%.
`CCC1CN(CCC(=O)N2CCCN(C(=O)c3ccco3)CC2)Cc2cc(OC)ccc2O1` (stereo not drawn): the activation is inactive: -13.9%.
On to `COc1ccc2c(c1)CCC1C2CC[C@@]2(C)C(O)CCC12` (stereo partly drawn), for which the activation was inactive: -2.91%.
With `CC(C)OC(=O)OCOP(=O)(CO[C@H](C)Cn1cnc2c(N)ncnc21)OCOC(=O)OC(C)C`, the activation is inactive: 0.775%.
As to `CN1CCC(OC(=O)C(Oc2ccc(Cl)cc2)Oc2ccc(Cl)cc2)CC1`, the activation is inactive: -28.6%.
For `CN(C)C(=O)/N=N/C(=O)N(C)C`, the activation was inactive: -24.2%.
For the compound `CNC(=O)Oc1ccc2c(c1)C1(C)CCN(C)C1N2C` (stereo not drawn), the activation is inactive: 1.23%.
With `C=C1C[C@@]23CC[C@H]4[C@@](C)(CCC[C@@]4(C)C(=O)OC4OC(CO)C(O)C(O)C4O)[C@@H]2CC[C@]1(OC1OC(CO)C(O)C(O)C1OC1OC(CO)C(O)C(O)C1O)C3` (stereo partly drawn), the activation was inactive: -3.46%.
As to `FC(F)(F)c1cccc(-c2cn[nH]c2C2CCCN(Cc3cccn3-c3ccccn3)C2)c1` (stereo not drawn), the activation is inactive: -5.25%.
`COc1cccc(C(=O)CC2c3c(c(Br)c4c(c3OC)OCO4)CCN2C)c1` (stereo not drawn): the activation is inactive: -0.832%.
Turning to `c1cc2cc(-c3c(-c4ccc5c(c4)OCO5)noc3-c3ccsc3)ccc2[nH]1`, the activation is inactive: 0.357%.
In the case of `Cn1cnc([N+](=O)[O-])c1Sc1ncnc2nc[nH]c12`, the activation was inactive: -9.01% [middle of 4 runs].
On to `O=C(c1ccco1)N1CCC[C@@]2(CCN(c3ncccn3)C2)C1`, for which the activation was inactive: -7.48%.
In the case of `COc1ccc(C(=O)N2CCC[C@@]3(CCN(C(=O)NC(C)C)C3)C2)cc1`, the activation was inactive: 3.97%.
With `CSc1nc(C(=O)NCc2nc(-c3cccc(NC(=O)c4ccc(C)s4)c3)oc2C)cs1`, the activation is inactive: -8.51%.
As to `CC(CCCCC(=O)Nc1ccc(C(F)(F)F)cc1)NCCc1cnc[nH]1` (stereo not drawn), the activation was inactive: 9.69%.
With `c1nc(NCCN2CCOCC2)c2cc(-c3ccoc3)ccc2n1`, the activation was inactive: -7.45%.
On to `Cc1ccc(C)c(C(=O)N2CCC(C3(c4ccccn4)NC(=O)N(CC4CCCO4)C3=O)CC2)c1` (stereo not drawn), for which the activation was inactive: 0.355%.
For `CS(=O)(=O)N1CCC2(CCN(c3ccccc3)CC2)CC1`, the activation is inactive: -16.4%.
For `ClC(Cl)Cl`, the activation was inactive: -3.62%.
`CC[C@@H]1[C@H]2CCCC(=O)N3CC[C@@H](C[C@@H]1OC(=O)Nc1ccccc1)[C@@H]23`: the activation is inactive: -32.6%.
Take `Cc1ncc(C[n+]2csc(CCOP(=O)(O)OP(=O)(O)O)c2C)c(N)n1`: the activation was inactive: -22.6%.
Then `Cn1c(=O)c(-c2ccccc2)nc2cnc(N3CCOCC3)nc21`, with inactive: 4.52%.
Regarding `CC[C@H](CO)Nc1nc(NCc2ccccc2)c2ncn(C(C)C)c2n1`, the activation was inactive: -7% and inactive: -9.11%.
The value for `Cc1ccc(C(=O)Nc2cccc(-c3nc(CNC(=O)c4cccc(N(C)C)c4)c(C)o3)c2)s1` was inactive: -7.22%.
The value for `O=P(O)(O)OC(Cn1cncn1)(Cn1cncn1)c1ccc(F)cc1F` was inactive: -0.561%.
`CC(=O)OC(C)OC(=O)C(C)c1ccc(-c2ccccc2)c(F)c1` (stereo not drawn): the activation was inactive: -10.8% and inactive: -27.4%.
As to `O=C(N/N=C\c1ccccc1O)c1ccccc1O`, the activation was inactive: -25.6%.
As to `CN(C)C(=O)c1ccc(-c2nccc(NCc3cccs3)n2)cc1`, the activation is inactive: 3.93%.
Turning to `COc1ncc2nc(-c3ccccc3)c(=O)n(C3CC3)c2n1`, the activation was inactive: -15.9%.
Turning to `CCN1CCCC1CNC(=O)c1cnn(-c2nccc(-c3ccc(C)o3)n2)c1C1CC1` (stereo not drawn), the activation is inactive: -8.9%.
Then `CS(=O)(=O)Nc1cccc(-c2nc(NCc3ccccc3)c3ccccc3n2)c1`, with inactive: 2.87%; and `COCc1c(C(=O)N2CCN(C3CCCC3)CC2)cnn1-c1ncc2c(n1)-c1ccccc1CCC2`, with inactive: -5.9%; and `C[C@@H]1NC(=O)OC1c1ccco1` (stereo partly drawn), with inactive: -4.61%.
As to `O=C(O)c1ccccc1C(=O)Nc1ccc(S(=O)(=O)Nc2nccs2)cc1`, the activation was inactive: 7.03%.
Turning to `CS(=O)(=O)N1CCC2(CCCN(Cc3ccccc3)C2)CC1`, the activation was inactive: -5.39%.
In the case of `CC(C)[C@H](NC(=O)CNC(=O)OC(C)(C)C)C(=O)N[C@H](C=O)C(C)C` (Boc-Gly-Val-Val-aldehyde), the activation is inactive: 0.769%.
Consider `O=C(c1ccncc1)N1CCC[C@@]2(CCN(c3ccccc3)C2)C1`, for which the activation is inactive: -15.3%.
The value for `CN(c1nccc(=O)[nH]1)C1CCN(c2nc3ccccc3n2Cc2ccc(F)cc2)CC1` was inactive: 2.01%.
With `Cc1cnc(-n2ncc(C(=O)NCc3ccncc3)c2-c2cccs2)nc1-c1ccc(F)cc1`, the activation is inactive: -1.42%.
As to `CC(C)=CCCC(C)C1CC[C@@]2(C)C3=C(CC[C@@]12C)C1(C)CCC(O)C(C)(C)C1CC3` (stereo partly drawn), the activation is inactive: 0.897%.
For `COc1cc(C=C2CCC/C(=C\c3ccc(O)c(OC)c3)C2=O)ccc1O`, the activation was inactive: 2.37%.
Consider `Cn1ccnc1C1CCCCN1C(=O)CN1Cc2ccccc2OC(c2ccccc2F)C1` (stereo not drawn), for which the activation was inactive: -10.7%.
The value for `[N-]=[N+]=N[C@@H](CCN1CC[C@H](O)CCC1=O)c1ccccc1` was inactive: -13.9%; that for `O=c1onc2cnc3ccccc3n12` was inactive: -14.3% and inactive: -30.2%.
On to `c1cncc(OC2CCN(Cc3ccc4c(c3)CN(Cc3ccc5c(c3)OCO5)CCO4)CC2)c1`, for which the activation was inactive: -2.36%.
Then `COc1ncc2nc(-c3cc(F)cc(F)c3)c(=O)n(C3CC3)c2n1`, with inactive: -8.91%; and `CN(C)c1ccc(/C=C/c2cc[n+](C)c3ccccc23)cc1`, with inactive: -32%.
As for `COc1ccc2c(c1)-c1nc(-n3ncc(C(=O)N(C)CCO)c3C3CC3)ncc1CC2`, the activation was inactive: 2.48%.
Then `CN1CCN(C(c2ccccc2)c2ccccc2)CC1`, with inactive: -2.95% and inactive: -1.13%.
